# According to paper PMC7819943, “Rice protein-binding microarrays: a tool to detect cis-acting elements near promoter regions in rice”:
# Some of the results follow.
# Target: T1, OsWOX13 (Oryza sativa, UniProt Q5QMM3 1-267)
# T1 sequence: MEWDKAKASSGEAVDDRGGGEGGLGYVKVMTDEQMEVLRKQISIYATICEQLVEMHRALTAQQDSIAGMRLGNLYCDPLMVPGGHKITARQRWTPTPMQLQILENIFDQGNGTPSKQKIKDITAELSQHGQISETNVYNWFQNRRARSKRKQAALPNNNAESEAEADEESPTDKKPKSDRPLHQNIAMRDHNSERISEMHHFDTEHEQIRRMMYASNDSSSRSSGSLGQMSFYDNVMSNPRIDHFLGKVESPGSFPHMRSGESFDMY
# Assay: protein-binding microarray (RPBM); PBS, 2% BSA, 51.3 ng/ul salmon testes DNA, 50 uM zinc acetate, 200 nM TF, 25 C, 1 h; high values mean tight binding
# Settings: protein: recombinant; tags: N-terminal polyhistidine and DsRed monomer fusion (pET32a); label: CyDye5-dUTP incorporated in the synthesized complementary strand; 3' TTTTT single-stranded linker to array surface; dsDNA, one strand shown
# Procedure, shortened: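 Per-feature fluorescence intensity (arbitrary units), read on an Axon 4000B scanner, is the binding signal. Transcription factors carrying an N-terminal polyhistidine tag and DsRed fusion were expressed in E. coli BL21-CodonPlus and purified on Ni–NTA. A custom Agilent array, made double-stranded by primer extension with Cy5-dUTP and blocked with 2% BSA, was incubated with 200 nM protein in PBS, 2% BSA, salmon testes DNA and 50 µM zinc acetate at 25 °C for 1 h and then washed.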
row,Sequence,binding signal
1,GTGATTGGTTGGGAGGAGAATGTTGGTAGAGAAGTTGTTACGGAGTCACCTAGTGCAG,15900 fluorescence intensity (a.u.)
2,TGAACTGAGGGTAATTTGGTCAAATTTATGGTTGTAACGGCGGAGTCACCTAGTGCAG,4280 fluorescence intensity (a.u.)
3,TTTAATTAAACATCACCTGTCGATCATTCTCCGATCATACCGGAGTCACCTAGTGCAG,17500 fluorescence intensity (a.u.)
4,TCATCAGTTAATTAATACATGCATATTATATTATATAGGGCGGAGTCACCTAGTGCAG,20200 fluorescence intensity (a.u.)
5,TCACATGCATAATTTAGCTAAGATTGAATAATCTAATCAGCGGAGTCACCTAGTGCAG,17500 fluorescence intensity (a.u.)
6,AAGTTGATTTTAGGCATGAAAAGTTGTGAAGTGGTATGCGCGGAGTCACCTAGTGCAG,3380 fluorescence intensity (a.u.)
7,GGTGATTATACAGGCTCAAGCAGCTAGGAAGCATAACACCCGGAGTCACCTAGTGCAG,13100 fluorescence intensity (a.u.)
8,ACAATCATCAACTCTAGATGACATGGACATATGTTACCACCGGAGTCACCTAGTGCAG,6650 fluorescence intensity (a.u.)
9,AATTAATGACATTATCATTTTACATGCCATCTCCATCAGACGGAGTCACCTAGTGCAG,17100 fluorescence intensity (a.u.)
10,GAAAATTTAAAATTATGTCTATTAAAATTTTAGGAAATTTCGGAGTCACCTAGTGCAG,16900 fluorescence intensity (a.u.)
11,CCCTTTATTTGCTTATGATTTGTATTAGTTTGGTCAATATCGGAGTCACCTAGTGCAG,10800 fluorescence intensity (a.u.)
12,ATTCAGATATCTCAATCATCATAAAATCGTGGTCATCTCCCGGAGTCACCTAGTGCAG,9050 fluorescence intensity (a.u.)
13,TAAAATTTTAAAACTTAATTTTAAAGTCTACCTTTAGGCTCGGAGTCACCTAGTGCAG,17000 fluorescence intensity (a.u.)
14,GTGACAGACAAGACGAAGAAATGTCATGGCTGGAGGCGGTCGGAGTCACCTAGTGCAG,3960 fluorescence intensity (a.u.)
15,GCATGGATCCAATTAACTCTTTCTATTTTGTGTCTAGGTTCGGAGTCACCTAGTGCAG,3200 fluorescence intensity (a.u.)
16,GACCTTATTTGCATTGATTGACCTTATTTGCATTGATTTTCGGAGTCACCTAGTGCAG,19600 fluorescence intensity (a.u.)
17,ATAATTGCATCAATCTTGTGTTGAGTTATATGTTCAGTGCCGGAGTCACCTAGTGCAG,44500 fluorescence intensity (a.u.)
18,CTTCTCTTTCCGGCTGTAATTGAAATGCAGCAGCTGTAGACGGAGTCACCTAGTGCAG,5520 fluorescence intensity (a.u.)
19,TATTGATTATTAATAAAAGAGTAAATTTTAGATAACCCCACGGAGTCACCTAGTGCAG,33800 fluorescence intensity (a.u.)
20,CACGGATGAATTGTCAATTTGTCATGCGTCCGACGACGGACGGAGTCACCTAGTGCAG,19300 fluorescence intensity (a.u.)
21,AGAGCACATACTAATTAATGAAAATCATAAAACAAGGAGCCGGAGTCACCTAGTGCAG,5260 fluorescence intensity (a.u.)
22,AGATTGATTTAGAATTTGATTTTATCAAGTGTTGGATGTCCGGAGTCACCTAGTGCAG,46300 fluorescence intensity (a.u.)
23,TTATAATCAGTTCTTTACATTGATGAAATAAAGGATTTCCCGGAGTCACCTAGTGCAG,4280 fluorescence intensity (a.u.)
